In PubChem BioAssay AID686979 (National Center for Advancing Translational Sciences (NCATS), 2013):
Among all 420,000 compounds or so, about 50,000 (12%) were called active. The shares of active, inactive and inconclusive entries below differ from those in the screen. Calls come from the whole dose curve; as a rule, active = well fitted inhibition curve with a large enough effect; inconclusive = small, poorly fitted or top-dose-only effect; inactive = flat fitted curve, though single readings scatter. No potency is given beside an inconclusive call; the fits are too rough.

Experiment: qHTS for Inhibitors of human tyrosyl-DNA phosphodiesterase 1 (TDP1): qHTS in cells in presence of CPT; note: nearly all actives have a fitted effect of over 55% in size
Conditions: chicken DT40 Tdp1-/-;hTDP1 cells + 20 nM CPT, ATP luminescence, 48 h; activity change, negative = growth inhibition: at 46.2 µM (top of the series) unless noted
Procedure, shortened: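 Chicken DT40 Tdp1-/- cells stably complemented with human TDP1 were seeded at 400 cells/well in medium containing 20 nM camptothecin, exposed to pin-transferred compounds, and grown at 37 °C for at least 48 hr. Viability was read as ATP luminescence.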
% is set by controls: 0 for no effect and ±100 for the full control effect; potency is the fitted concentration of half-maximal effect; tags give direction and shape of the fitted curve.

SMILES | activity change, negative = growth inhibition | Potency
O=C(O)C1=CCC(c2ccc(Cl)c(Cl)c2)N(S(=O)(=O)c2ccc(F)cc2)C1c1cccc(F)c1 (centres undefined) | inactive: 9.27% | –
COc1ccc(Cl)cc1NC(=O)CN(C)C(=O)c1cn2ccccc2n1 | – | inconclusive [inhibitor, single point]
CCOc1ccc(NC(=O)CCN2CCN(c3ccccc3F)CC2)cc1 | – | inconclusive [inhibitor, single point]
CCOC(=O)C1CCCN(S(=O)(=O)c2cc(Br)cc3c2N(C(C)=O)CC3)C1 (centres undefined) | – | inactive
CC(OC(=O)CCCC(=O)Nc1ccccc1)C(=O)c1ccccc1 (centres undefined) | – | inconclusive [inhibitor, single point]
CCCCn1c(N)c(-c2nc3ccccc3s2)c2c([N+](=O)[O-])nn(C)c(=O)c21 | – | inconclusive [inhibitor, single point]
CCC(=O)N1CCc2cc(S(=O)(=O)NCCC(=O)NCc3ccc(C)cc3)ccc21 | – | active: 20.6 µM
COc1cccc(-n2nnnc2S(C)(=O)=O)c1 | – | active: 2.06 µM
Cc1noc(/C=C/c2ccco2)c1S(=O)(=O)N1CCC(C(=O)Nc2ccc(Cl)cn2)CC1 | – | inconclusive [inhibitor, single point]
NC(=O)CC(NC(=O)c1cccc(Br)c1)c1ccc(NC2CCC2)c([N+](=O)[O-])c1 (centres undefined) | – | inconclusive [inhibitor, single point]
COC(=O)c1ccc(NS(=O)(=O)c2ccc3[nH]c4c(c3c2)CCCC4)cc1 | – | inconclusive [inhibitor, partial curve, poor fit]
O=c1cc(-c2c(O)c3ccccc3n(Cc3ccccc3)c2=O)[nH][nH]1 | inactive: 0.186% | –
CN(C)S(=O)(=O)c1cccc(NC(=O)/C=C/c2ccc(S(=O)(=O)N3CCOCC3)cc2)c1 | – | active: 14.6 µM
O=C(NCCc1ccc(Cl)cc1)c1ccc2c(c1)N(Cc1ccc(F)cc1)C(=O)CS2 | – | active: 20.6 µM
CCCOc1ccc(NC(=O)OC2CCN(C)CC2)cc1 | – | inconclusive [inhibitor, single point]
OCOCCCn1c(C2CCCN2c2nc(-c3ccc(F)cc3)cs2)nc2cc(Cl)c(N3CCCCC3)cc21 (centres undefined) | – | inconclusive [inhibitor, single point]
O=C1COc2ccc(-c3cc(-c4ccccc4)c4c(n3)-c3ccccc3OC4)cc2N1 | – | active: 13 µM
Cc1nn(-c2ccccc2)c2sc(C(=O)Nc3ccc(Br)cc3)cc12 | – | inconclusive [inhibitor, single point]
C[n+]1c(-c2ccccc2)cc2c(=Cc3ccc([N+](=O)[O-])cc3)c3ccccc3n21 | – | active: 1.84 µM
